Source: publication PMC4336329 (PLoS ONE, 2015)
Hit rate of the full screen: of about 310,000 compounds, about 14,000 (4.5%) showed an effect of 50% or more. The effect is printed as a negative number. The list shows a part of the results.

Biological target: human ether-à-go-go-related gene (hERG) potassium channel (human, UniProt Q12809)
Test: primary screen, population patch clamp on CHO cells stably expressing hERG
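Also: peak tail current of the secondary pulse compared with the same well before compound.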

Chain of human ether-à-go-go-related gene (hERG) potassium channel (Q12809 whole entry, looked up): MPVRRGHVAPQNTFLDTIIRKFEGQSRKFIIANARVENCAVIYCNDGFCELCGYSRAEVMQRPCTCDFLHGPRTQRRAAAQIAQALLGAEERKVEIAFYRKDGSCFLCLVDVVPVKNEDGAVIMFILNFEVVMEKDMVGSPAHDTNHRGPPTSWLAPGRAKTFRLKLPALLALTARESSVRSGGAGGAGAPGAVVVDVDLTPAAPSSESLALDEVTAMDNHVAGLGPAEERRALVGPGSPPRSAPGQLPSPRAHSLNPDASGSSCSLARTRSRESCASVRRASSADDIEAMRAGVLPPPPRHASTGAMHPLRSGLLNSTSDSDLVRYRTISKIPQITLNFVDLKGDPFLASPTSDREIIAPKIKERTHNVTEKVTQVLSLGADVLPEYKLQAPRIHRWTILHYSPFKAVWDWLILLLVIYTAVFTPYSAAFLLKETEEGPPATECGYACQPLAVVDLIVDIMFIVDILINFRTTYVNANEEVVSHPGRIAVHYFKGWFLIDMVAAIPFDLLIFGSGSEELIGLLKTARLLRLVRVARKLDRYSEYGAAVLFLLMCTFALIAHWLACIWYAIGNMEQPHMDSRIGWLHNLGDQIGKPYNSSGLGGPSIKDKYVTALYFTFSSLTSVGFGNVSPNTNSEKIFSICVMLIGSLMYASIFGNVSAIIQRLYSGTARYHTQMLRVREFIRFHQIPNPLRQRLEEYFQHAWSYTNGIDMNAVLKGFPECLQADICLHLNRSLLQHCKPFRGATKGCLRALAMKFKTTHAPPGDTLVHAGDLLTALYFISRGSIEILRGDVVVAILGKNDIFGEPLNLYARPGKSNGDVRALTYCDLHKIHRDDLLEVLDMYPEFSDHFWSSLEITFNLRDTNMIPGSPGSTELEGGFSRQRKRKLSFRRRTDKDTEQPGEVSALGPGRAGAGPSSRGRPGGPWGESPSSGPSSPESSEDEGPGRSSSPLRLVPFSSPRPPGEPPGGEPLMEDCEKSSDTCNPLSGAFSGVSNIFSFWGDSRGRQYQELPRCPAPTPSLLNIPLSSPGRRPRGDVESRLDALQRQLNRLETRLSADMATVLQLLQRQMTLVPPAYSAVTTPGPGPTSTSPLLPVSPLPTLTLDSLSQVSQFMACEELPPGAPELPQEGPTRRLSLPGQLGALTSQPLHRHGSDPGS

| Structure (SMILES) | hERG current change (%, negative = inhibition) at 10uM |
| --- | --- |
| CCC(C(=O)NC1CCCCCC1)n1nc(C)n2c(cc3occc32)c1=O (stereo not shown) | -41.6% |
| CCOC(=O)C(=Cc1ccc(-n2cncn2)cc1)C(=O)OCC | -1.42% |
| COc1ccc(Cl)cc1NC(=O)Cn1nnc(C(=O)NCc2ccc3c(c2)OCO3)c1N | 2.21% |
| Cc1ccc(C2=N/C(=C\c3c(C)nn(-c4ccccc4)c3N3CCCC3)C(=O)O2)cc1 | 5.11% |
| CCOc1cc(C(=O)Nc2ccc(S(=O)(=O)N3CCCCC3)cc2)ccc1OCC(=O)N1CCOCC1 | -14.4% |
| Cc1ccc(S(=O)(=O)N2CCOCC2)c2nsnc12 | -3.38% |
| Nc1ccc(-c2c3ccc(=O)cc-3oc3cc(O)ccc23)cc1C(=O)O | 15.4% |
| O=C1c2cc(Cl)ccc2OC2(CCNCC2)C12CC(c1ccc(Cl)cc1)=NO2 (stereo not shown) | 4.54% |
| COc1cc(CC(=O)OCC(=O)Nc2ccccc2C#N)cc(OC)c1OC | 5.92% |
| COc1ccc(C2CC(c3cccs3)=NN2C(=O)COC(=O)c2cc3ccccc3cc2O)cc1OC (stereo not shown) | 3.18% |
| CC(C(=O)N1CCCc2ccccc21)N1CCN(S(=O)(=O)c2ccccc2F)CC1 (stereo not shown) | -23% |
| Cc1cccc(-c2noc(CCC(=O)NC3CCCCC3)n2)c1 | 4.37% |
| CSc1nc2ccc(NS(=O)(=O)c3ccc(Br)s3)cc2s1 | 14.3% |
| COc1ccccc1CNC(=O)CSc1nnc2c(Cl)cc(C(F)(F)F)cn12 | 5.16% |
| Cc1ccc(CNC(=O)CCCc2c[nH]c3ccccc23)cc1 | -18.9% |
| OC1(c2cccs2)CN(c2ccc(Cl)cc2)C2=[N+]1CCCC2.[Br-] (stereo not shown) | -59.5% |
| CC1CCCN(C(=O)Cn2c(=O)oc3cc(S(=O)(=O)N4CCCCC4)ccc32)C1 (stereo not shown) | 8.08% |
| CCc1n[nH]c2c1/C(=N/O)CCC2 | 4.05% |
| S=C(NCCN1CCOCC1)N/N=C/c1cccs1 | 14.4% |
| CC(=O)c1ccc(NC(=O)CSc2nnc(NC(=O)c3ccco3)s2)cc1 | -26.9% |
| CN1C(C(=O)NCCc2cccs2)CC2Cn3c(nc4cc(Cl)c(Cl)cc43)C21 (stereo not shown) | -63.6% |
| O=C1c2ccccc2C2(c3cc(C(F)(F)F)cc(C(F)(F)F)c3)NCCN12 (stereo not shown) | -0.536% |
| O=C(CCN1C(=O)c2ccccc2S1(=O)=O)Nc1ccc2c(c1)OCCO2 | 17.2% |
| CCOc1ccc(S(=O)(=O)NCCCn2ccnc2)cc1NC(C)=O | -14.4% |
| O=C(CCC(=O)OCC(F)(F)C(F)F)Nc1ccc(Cl)cc1 | -9.24% |
| CC(C)(C)C(=O)c1cn(CC(=O)O)c2ccccc12 | 9.17% |
| O=C(NCCc1ccccc1)C1CCN(C(=O)c2ccc([N+](=O)[O-])cc2)CC1 | -63.2% |
| COC(=O)c1cc(NC(=O)c2cc(C(C)(C)C)nn2Cc2cccc(C)c2)ccc1N1CCOCC1 | 15% |

| Structure (SMILES) | hERG current change (%, negative = inhibition) at 10uM |
| --- | --- |
| COc1ccc(C(CNC(=O)c2oc3ccc(F)cc3c2C)N2CCCCC2)cc1 (stereo not shown) | -59.9% |
| N/C(=N\OC(=O)Cc1ccc(-c2ccccc2)cc1)c1cccc([N+](=O)[O-])c1 | 13.6% |
| CNC(=O)CSc1nc2cccnc2n1-c1ccc(F)cc1 | 11.1% |
| CC(C)C(C(=O)C=[N+]=[N-])N1C(=O)c2ccccc2C1=O (stereo not shown) | 5.77% |
| CCC12CN(C(=O)c3ccc([N+](=O)[O-])cc3)CC(CC)(CN(C(=O)c3ccc([N+](=O)[O-])cc3)C1)C2=O | -16.6% |
| Cc1cccc(C)c1NC(=O)CNC(=O)CCC(=O)N1CCOCC1 | 11.6% |
| O=C(NCCS(=O)(=O)NCC1CCCO1)c1ccccc1 (stereo not shown) | 14.3% |
| CCOc1ccc(NC(=O)CSc2ccc3nnc(-c4ccccn4)n3n2)cc1 | -54.3% |
| O=C(Cc1ccccc1)NS(=O)(=O)c1ccc(N=NN2CCOCC2)cc1 | 24.3% |
| CS(=O)(=O)c1cnc(-c2ccccc2)nc1Oc1ccc(F)cc1 | 9.61% |
| OCCNc1nc(OCC(F)(F)F)nc(N2CCN(C34CC5CC(CC(C5)C3)C4)CC2)n1 | -37.9% |
| O=C(COC(=O)c1ccco1)c1ccc(Cl)cc1 | 20.7% |
| CC(Sc1nc(-c2ccccc2)cc(C(F)(F)F)n1)C(=O)N1CCCC1 (stereo not shown) | 1.76% |
| CC(=O)c1ccc(-n2c(-c3cc(-c4ccco4)[nH]n3)n[nH]c2=S)cc1 | 13.5% |
| CCOP(=O)(OCC)C(NS(=O)(=O)c1ccccc1)C(Cl)(Cl)Cl (stereo not shown) | 11.9% |
| N#Cc1c(N)n(-c2ccc(O)cc2)c2nc3ccccc3nc12 | 8.96% |
| O=C(Nc1ccccc1)Nc1nnc(Cc2ccccc2F)s1 | -12.2% |
| Cc1cc([N+](=O)[O-])ccc1NC(=O)C(C)N1CCN(c2ccccn2)CC1 (stereo not shown) | -71.4% |
| COC(=O)C1=CO[C@@H](O[C@@H]2OC(CO)[C@@H](O)[C@@H](O)[C@@H]2O)C2C1CC[C@]2(C)O (stereo partly shown) | -0.251% |
| CCC(=O)N=c1sc2cc([N+](=O)[O-])ccc2n1CCOC | 2.71% |
| CCOC(=O)C(C)Sc1nc2c([nH]c3ccccc32)c(=O)n1C (stereo not shown) | -6.19% |
| NC(=O)/C(=C/c1ccco1)NC(=O)c1ccc(Br)o1 | 1.02% |
| COc1ccc(CNC(=S)Nc2cccc(C)c2)cc1 | 2.63% |
| COc1ccc(C(=O)Cn2nnc(-c3ccccc3NC(=O)C3CC3)n2)cc1 | 7.46% |
| O=S1(=O)CC(O)C(NCc2ccco2)C1 (stereo not shown) | -1.57% |
| CCOc1ccc(CN2CCCC(CO)(Cc3ccccc3F)C2)cc1 (stereo not shown) | -64.8% |
| COc1ccccc1CNC(=O)CN(C)CC(=O)Nc1cccc(F)c1 | 4.16% |
